Measurements taken from PMC11964227, “Critical functions and key interactions mediated by the RNase E scaffolding domain in Pseudomonas aeruginosa” (PLOS Genetics, 2025).
These are yes or no findings as the source states them, for the method shown. Some results given as binding are weak or reduced against the parent protein; the word gives no strength. For some assays here: Where a sequence is shown, tags or fusion partners need not be part of it.

Chains of the proteins cited; added tags and fusions are not shown. Lines headed by an entry give the natural chain unless they say otherwise; changes in a name come on top. Residues count along the entry.
UniProt Q9HZM8: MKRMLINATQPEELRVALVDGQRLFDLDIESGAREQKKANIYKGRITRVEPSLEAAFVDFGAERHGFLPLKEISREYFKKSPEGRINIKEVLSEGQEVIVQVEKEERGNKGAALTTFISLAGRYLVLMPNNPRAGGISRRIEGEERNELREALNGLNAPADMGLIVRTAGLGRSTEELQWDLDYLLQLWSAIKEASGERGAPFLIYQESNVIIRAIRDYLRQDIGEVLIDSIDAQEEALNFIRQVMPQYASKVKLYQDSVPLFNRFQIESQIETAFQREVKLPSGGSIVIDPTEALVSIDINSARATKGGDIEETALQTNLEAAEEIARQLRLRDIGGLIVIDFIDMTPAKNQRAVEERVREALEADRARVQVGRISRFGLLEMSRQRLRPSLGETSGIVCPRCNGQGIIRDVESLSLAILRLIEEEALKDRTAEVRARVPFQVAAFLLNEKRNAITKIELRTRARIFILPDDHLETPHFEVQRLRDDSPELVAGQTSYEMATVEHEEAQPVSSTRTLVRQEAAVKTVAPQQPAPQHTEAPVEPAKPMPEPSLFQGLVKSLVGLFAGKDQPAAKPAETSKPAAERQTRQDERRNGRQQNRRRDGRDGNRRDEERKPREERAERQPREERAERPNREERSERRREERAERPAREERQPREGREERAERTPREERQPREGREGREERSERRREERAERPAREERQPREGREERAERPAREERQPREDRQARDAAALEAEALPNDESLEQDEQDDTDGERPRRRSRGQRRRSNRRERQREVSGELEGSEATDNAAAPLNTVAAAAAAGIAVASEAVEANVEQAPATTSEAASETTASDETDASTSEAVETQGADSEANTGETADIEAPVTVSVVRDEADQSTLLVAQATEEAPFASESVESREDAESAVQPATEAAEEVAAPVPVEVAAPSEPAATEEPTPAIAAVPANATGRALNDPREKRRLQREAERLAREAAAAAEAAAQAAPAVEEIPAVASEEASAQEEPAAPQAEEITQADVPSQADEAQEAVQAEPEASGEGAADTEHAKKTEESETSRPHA
T18-RNase E^1-1025: residues 1-1025 of Q9HZM8
T18-RNase E^1-793: residues 1-793 of Q9HZM8
T18-RNase E^1-733: residues 1-733 of Q9HZM8
Flag-RNase E^1-588: residues 1-588 of Q9HZM8
Flag-RNase E^1-529: residues 1-529 of Q9HZM8
T18-RNase E^733-793: residues 733-793 of Q9HZM8
T18-RNase E^733-761: residues 733-761 of Q9HZM8
T18-RNase E^762-793: residues 762-793 of Q9HZM8
T18-RNase E^940-1057: residues 940-1057 of Q9HZM8

Assays:
[1] = biological target: T18-RNase E^1-529 (P. aeruginosa) (UniProt Q9HZM8); experiment: two-hybrid; adenylate-cyclase-based bacterial two-hybrid in E. coli BTH101 (T18 and T25 fusions); MacConkey agar with maltose and IPTG, 30°C then room temperature; β-galactosidase activity with ONPG
[2] = biological target: T18-RNase E^940-1057 (P. aeruginosa) (UniProt Q9HZM8); experiment: as above
[3] = biological target: T18-RNase E^1-1025 (P. aeruginosa) (UniProt Q9HZM8); experiment: as above
[4] = biological target: Flag-RNase E^1-529 (P. aeruginosa) (UniProt Q9HZM8); experiment: pull-down; purified Flag-tagged RNase E proteins (20-25 µg) immobilised on anti-Flag M2 magnetic beads, 5 µg of PNPase or RhlB in 100 µL buffer H (50 mM Tris-HCl pH 8.0, 150 mM NaCl, 0.01% Triton X-100), 1 hour at 4 °C; SDS-PAGE, Coomassie Blue; both purified
[5] = biological target: Flag-RNase E^1-588 (P. aeruginosa) (UniProt Q9HZM8); experiment: as above
[6] = biological target: Flag-RNase E^1-1057 (P. aeruginosa) (UniProt Q9HZM8); experiment: pull-down; purified Flag-tagged RNase E^1-1057 or RNase E^1-588 on anti-Flag magnetic beads (50 µL), purified ArcB, in presence or absence of 100 ng/µl of total P. aeruginosa RNA; elution with 3X FLAG Peptide; both purified
[7] = biological target: Flag-RNase E^1-588 (P. aeruginosa) (UniProt Q9HZM8); experiment: as above
[8] = biological target: T18-RNase E^762-793 (P. aeruginosa) (UniProt Q9HZM8); experiment: two-hybrid; adenylate-cyclase-based bacterial two-hybrid in E. coli BTH101 (T18 and T25 fusions); MacConkey agar with maltose and IPTG, 30°C then room temperature; β-galactosidase activity with ONPG
[9] = biological target: T18-RNase E^733-793 (P. aeruginosa) (UniProt Q9HZM8); experiment: as above
[10] = biological target: T18-RNase E^1-733 (P. aeruginosa) (UniProt Q9HZM8); experiment: as above
[11] = biological target: T18-RNase E^1-793 (P. aeruginosa) (UniProt Q9HZM8); experiment: as above
[12] = biological target: T18-RNase E^733-761 (P. aeruginosa) (UniProt Q9HZM8); experiment: as above

B1: T25-PNPase (enzyme, P. aeruginosa, UniProt Q9HV59 1-701, looked up)
chain: MNPVTKQFQFGQSTVTLETGRIARQATGAVLVTMDDVSVLVTVVGAKSPAEGRDFFPLSVHYQEKTYAAGRIPGGFFKREGRPSEKETLTSRLIDRPIRPLFPEGFMNEVQVVCTVVSTNKKSDPDIAAMIGTSAALAISGIPFAGPIGAARVGFHPEIGYILNPTYEQLQSSSLDMVVAGTEDAVLMVESEADELTEDQMLGAVLFAHDEFQAVIRAVKELAAEAGKPAWDWKAPAENTVLVNAIKAELGEAISQAYTITIKQDRYNRLGELRDQAVALFAGEEEGKFPASEVKDVFGLLEYRTVRENIVNGKPRIDGRDTRTVRPLRIEVGVLGKTHGSALFTRGETQALVVATLGTARDAQLLDTLEGERKDAFMLHYNFPPFSVGECGRMGSPGRREIGHGRLARRGVAAMLPTQDEFPYTIRVVSEITESNGSSSMASVCGASLALMDAGVPVKAPVAGIAMGLVKEGEKFAVLTDILGDEDHLGDMDFKVAGTDKGVTALQMDIKINGITEEIMEIALGQALEARLNILGQMNQVIAKPRAELSENAPTMLQMKIDSDKIRDVIGKGGATIRGICEETKASIDIEDDGSVKIYGETKEAAEAAKLRVLAITAEAEIGKIYVGKVERIVDFGAFVNILPGKDGLVHISQISDKRIDKVTDVLQEGQEVKVLVLDVDNRGRIKLSIKDVAAAEASGV
notes: Polyribonucleotide phosphorylase (PNPase), P. aeruginosa, pnp; source: bacterial two-hybrid fusion (pKT25), E. coli BTH101
[1]
  binding: no binding
[2]
  binding: binds
[3]
  binding: binds

B2: His10Smt3-tagged PNPase (enzyme, UniProt Q9HV59 1-701)
chain: B1 chain
[4]
  binding: no binding (tested: 5 µg of PNPase in 100 µL)
[5]
  binding: no binding (tested: 5 µg of PNPase in 100 µL)

B3: T25-ArcB (enzyme, UniProt P08308 1-336)
chain: MAFNMHNRNLLSLMHHSTRELRYLLDLSRDLKRAKYTGTEQQHLKRKNIALIFEKTSTRTRCAFEVAAYDQGANVTYIDPNSSQIGHKESMKDTARVLGRMYDAIEYRGFKQEIVEELAKFAGVPVFNGLTDEYHPTQMLADVLTMREHSDKPLHDISYAYLGDARNNMGNSLLLIGAKLGMDVRIAAPKALWPHDEFVAQCKKFAEESGAKLTLTEDPKEAVKGVDFVHTDVWVSMGEPVEAWGERIKELLPYQVNMEIMKATGNPRAKFMHCLPAFHNSETKVGKQIAEQYPNLANGIEVTEDVFESPYNIAFEQAENRMHTIKAILVSTLADI
[1]
  binding: no binding

B4: His10Smt3-tagged ArcB (enzyme, UniProt P08308 1-336)
chain: B3 chain
[6]
  binding: no binding
[7]
  binding: no binding

B5: T25-RhlB (enzyme, P. aeruginosa, UniProt Q9HXE5 1-397, looked up)
chain: MVEPQEGKTRFHDFNLAPSLMHAIHDLGFPYCTPIQAQVLGFTLRGQDAIGRAQTGTGKTAAFLISIITQLLQTPPPKERYMGEPRALIIAPTRELVVQIAKDAAALTKYTGLNVMTFVGGMDFDKQLKQLEARFCDILVATPGRLLDFNQRGEVHLDMVEVMVLDEADRMLDMGFIPQVRQIIRQTPHKGERQTLLFSATFTDDVMNLAKQWTVDPAIVEIEPENVASDTVEQHVYAVAGSDKYKLLYNLVAQNNWERVMVFANRKDEVRRIEERLTKDGISAAQMSGDVPQHKRIRTLEGFREGKIRVLVATDVAGRGIHIDGISHVINFTLPEDPDDYVHRIGRTGRAGASGTSISFAGEDDAFALPPIEELLGRKITCEMPPAELLKPVPRKH
notes: RNA helicase RhlB, P. aeruginosa; source: bacterial two-hybrid fusion (pKT25), E. coli BTH101
[8]
  binding: no binding
[9]
  binding: binds
[10]
  binding: no binding
[11]
  binding: binds
[12]
  binding: no binding

B6: His10Smt3-tagged RhlB (enzyme, UniProt Q9HXE5 1-397)
chain: B5 chain
[4]
  binding: no binding (tested: 5 µg of RhlB in 100 µL)
